According to PubChem BioAssay (Tox21):
“And” between values parts separate entries of the source, which are not always exact repeats. Equal values may be shown once. The shares of active, inactive and inconclusive entries below differ from those in the screen. Where the call is inconclusive, the potency comes from a doubtful curve fit. The source made the active and inactive calls. Calls come from the whole dose curve; as a rule, active = well fitted inhibition curve with a large enough effect in the repeat runs; inconclusive = weak or mixed curves; inactive = no such curve, though single readings can be large or run the other way.

molecular target: Cytochrome P450 3A4 (Homo sapiens) (UniProt P08684); assay: Cytochrome P450 Family 3 Subfamily A Member 4 (CYP3A4) small molecule antagonists: luciferase reporter qHTS assay (AID 1671201); details: P450-Glo CYP3A4 enzyme, luciferin luminescence, 1 h; series mostly up to 115 µM; note: nearly all actives have a fitted effect of over 50% in size
Outline: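 Inhibition of CYP3A4 is measured as loss of light: the enzyme converts a proluciferin substrate to luciferin, detected luminescently. Reaction ran 1 h at room temperature with NADPH regeneration after a 10 min compound preincubation.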
Potency is the fitted concentration of half-maximal effect; tags give direction and shape of the fitted curve.

UniProt P08684, sequence (P08684 whole entry, looked up): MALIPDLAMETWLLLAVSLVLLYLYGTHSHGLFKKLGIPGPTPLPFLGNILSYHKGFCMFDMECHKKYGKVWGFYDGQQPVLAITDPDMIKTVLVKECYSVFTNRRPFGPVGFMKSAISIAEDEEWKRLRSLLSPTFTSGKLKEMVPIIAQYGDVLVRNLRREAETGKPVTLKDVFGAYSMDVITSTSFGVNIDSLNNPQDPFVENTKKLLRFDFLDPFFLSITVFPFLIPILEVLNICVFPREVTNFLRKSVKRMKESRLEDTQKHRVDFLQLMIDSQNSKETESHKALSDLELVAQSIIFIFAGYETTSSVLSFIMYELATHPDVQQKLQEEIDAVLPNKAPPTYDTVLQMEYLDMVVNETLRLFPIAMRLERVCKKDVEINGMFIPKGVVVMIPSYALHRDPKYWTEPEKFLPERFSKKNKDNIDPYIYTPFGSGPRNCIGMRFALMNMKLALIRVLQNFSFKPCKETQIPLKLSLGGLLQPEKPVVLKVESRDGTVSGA

Structure (SMILES) | Potency
Nc1nc(-c2ccc([N+](=O)[O-])cc2)cs1 | inconclusive: 5.08 µM [inhibitor, full curve]
CCC(=O)c1ccc2c(c1)N(CCCN(C)C)c1ccccc1S2 | inactive
CCCCN1CCCC[C@H]1C(=O)Nc1c(C)cccc1C | inconclusive: 12.3 µM [inhibitor, partial curve]
CC/C=C\CCOC(C)=O | inactive
O=C1c2ccccc2C(=O)C1c1nc2ccccc2c(Br)c1O | inconclusive: 28.3 µM [inhibitor, partial curve]
C=C(C)C(=O)OCCOCCOCCOCCOC(=O)C(=C)C | inconclusive: 63.3 µM [inhibitor, partial curve]
Cn1c([N+](=O)[O-])cnc1COC(N)=O | inactive
CCOC(=O)COc1cc(-n2ncc(C(F)(F)F)c(C)c2=O)c(F)cc1Cl | inconclusive: 63.3 µM [inhibitor, partial curve]
CC(C)(C)c1ccc(OC2CCCCC2O)cc1 (stereo unspecified) | inconclusive: 79.6 µM [inhibitor, partial curve, poor fit]
COC(=O)NN | inactive
c1ccc(C[P+](c2ccccc2)(c2ccccc2)c2ccccc2)cc1 | inactive
CCCc1ccc(N)cc1 | inconclusive: 39.9 µM [inhibitor, partial curve]
COc1ccc2nc(N)sc2c1 | inconclusive: 35.6 µM [inhibitor, partial curve] and inconclusive: 39.9 µM [inhibitor, partial curve]
C[Si](O[Si](C)(C)C)O[Si](C)(C)C | inconclusive: 52.6 µM [inhibitor, partial curve]
FC1(F)C(F)(F)C(F)(F)C2(F)C(F)(F)C(F)(F)C(F)(F)C(F)(F)C2(F)C1(F)F (stereo unspecified) | inactive
CC(c1cc(C(C)(C)C)cc(C(C)(C)C)c1O)c1cc(C(C)(C)C)cc(C(C)(C)C)c1O | inconclusive: 7.1 µM [inhibitor, single point]
ON=C1CCCC1 | inconclusive: 32.8 µM [inhibitor, partial curve]
Oc1cccc2c(O)cccc12 | inconclusive: 79.6 µM [inhibitor, single point]

Structure (SMILES) | Potency
Cc1ccc(C(C)OC(=O)C2(C)CCC(C(=O)O)C2(C)C)cc1 (stereo unspecified) | inactive
CC(=O)CCC1=C(C)CCCC1(C)C | active: 10 µM
CN[C@@H]1[C@H](O)[C@H](NC)[C@H]2O[C@@]3(O)C(=O)C[C@@H](C)O[C@H]3O[C@@H]2[C@H]1O | inconclusive: 30.9 µM [inhibitor, partial curve, poor fit]
CC(CCl)OP(=O)(OC(C)CCl)OC(C)CCl (stereo unspecified) | inconclusive: 35.7 µM [inhibitor, partial curve] and inconclusive: 42.1 µM [inhibitor, partial curve]
CNCc1ccc(NC(=O)c2c[nH]c3c2C(=O)CCC3)cc1 | inconclusive: 31.7 µM [inhibitor, partial curve]
CN(C)C(=O)Nc1ccc(Oc2ccc(Cl)cc2)cc1 | inconclusive: 63.3 µM [inhibitor, partial curve]
N#Cc1cc(NC(=O)C(=O)O)c(Cl)c(NC(=O)C(=O)O)c1 | inactive
O=C1CCCCCCCCCCCCCCCO1 | inconclusive: 35.6 µM [inhibitor, partial curve]
CCCCNS(=O)(=O)c1ccc(C)cc1 | inconclusive: 35.6 µM [inhibitor, partial curve]
c1ccc2c(c1)ccc1ncccc12 | inconclusive: 89.4 µM [inhibitor, single point]
O=C1c2ccccc2C(=O)c2c1ccc(O)c2O | inactive
CCCCCc1ccco1 | active: 23.2 µM
Cc1ccc([N+](=O)[O-])cc1N | inconclusive: 39.8 µM [inhibitor, partial curve] and inconclusive: 63.3 µM [inhibitor, partial curve, poor fit]
Cc1cc(O)ccc1N | active: 11.3 µM
O=Nc1ccc(O)cc1 | inconclusive: 34.8 µM [inhibitor, partial curve]
Oc1ccc(Cc2ccccc2O)cc1 | inactive
O=C(O)c1ccccc1 | inconclusive: 11.8 µM [inhibitor, full curve, poor fit]
CCOc1ccc(NC(C)=O)cc1N | inconclusive: 36.1 µM [inhibitor, partial curve, poor fit]
